To fix the notation:
B1: PhoQ; a variant is named by its letters at X, in order, P23837 (parent)
chain: MKKLLRLFFPLSLRVRFLLATAAVVLVLSLAYGMVALIGYSVSFDKTTFRLLRGESNLFYTLAKWENNKLHVELPENIDKQSPTMTLIYDENGQLLWAQRDVPWLMKMIQPDWLKSNGFHEIEADVNDTSLLLSGDHSIQQQLQEVREDDDDAEMTHSVAVNVYPATSRMPKLTIVVVDTIPVELKSSYMVWSWFIYVLSANLLLVIPLLWVAAWWSLRPIEALAKEVRELEEHNRELLNPATTRELTSLVRNLNRLLKSERERYDKYRTTLTDLTHSLKTPLXXLQXXLRSLRSEKMSVSDAEPVMLEQISRISQQIGYYLHRASMRGGTLLSRELHPVAPLLDNLTSALNKVYQRKGVNISLDISPEISFVGEQNDFVEVMGNVLDNACKYCLEFVEISARQTDEHLYIVVEDDGPGIPLSKREVIFDRGQRVDTLRPGQGVGLAVAREITEQYEGKIVAGESMLGGARMEVIFGRQHSAPKDE

Some of the results follow.

In this assay the parent is B1. The experiment in a line: enrichment ratio after two sorts for PhoP signalling (ratio (wild type AVST 3.29)); higher = more functional. The conditions noted are these: with PhoP (E. coli).
On to LANL, for which the enrichment ratio was at most 0.25.

For the variant YACY, the enrichment ratio is at most 0.25.

As for DKLK, the enrichment ratio was at most 0.25.

Consider TLSF, for which the enrichment ratio was 4.9.

As to ECYQ, the enrichment ratio is at most 0.25.

In the case of EINC, the enrichment ratio was at most 0.25.

Take IRWS: the enrichment ratio was at most 0.25.

Consider WYWG, for which the enrichment ratio was at most 0.25.

DEYC: the enrichment ratio is at most 0.25.

On to NYGH, for which the enrichment ratio was at most 0.25.

YWSH: the enrichment ratio was at most 0.25.

Regarding EDLK, the enrichment ratio is at most 0.25.

Consider KKGM, for which the enrichment ratio was at most 0.25.

For STPL, the enrichment ratio was 8.

As to LANV, the enrichment ratio is at most 0.25.

For the variant MGTK, the enrichment ratio is at most 0.25.

For VEMC, the enrichment ratio came to 15.7.

GMGA: the enrichment ratio is at most 0.25.

Consider ITLA, for which the enrichment ratio came to 0.339.

As for SFWY, the enrichment ratio was at most 0.25.

In the case of FTHY, the enrichment ratio is at most 0.25.

Consider APGY, for which the enrichment ratio is at most 0.25.

For the variant ECKF, the enrichment ratio was at most 0.25.

On to AHRI, for which the enrichment ratio is at most 0.25.

Regarding TRVS, the enrichment ratio was determined as 0.901.

For RNTM, the enrichment ratio is at most 0.25.

With GNWR, the enrichment ratio is at most 0.25.

In the case of QFCI, the enrichment ratio was found to be 8.89.

FKIE: the enrichment ratio is at most 0.25.

In the case of RRFY, the enrichment ratio is at most 0.25.

On to FSHW, for which the enrichment ratio was at most 0.25.

NYST: the enrichment ratio was at most 0.25.

Consider TTDM, for which the enrichment ratio was 22.8.

For the variant QYIQ, the enrichment ratio is at most 0.25.

Consider FVMM, for which the enrichment ratio came to 8.76.

For KGFR, the enrichment ratio is at most 0.25.

As for RMPQ, the enrichment ratio is at most 0.25.

Turning to FRHY, the enrichment ratio was at most 0.25.

Turning to EDKL, the enrichment ratio is at most 0.25.

For AMAK, the enrichment ratio was at most 0.25.

In the case of TRRV, the enrichment ratio is at most 0.25.

As to GTYK, the enrichment ratio was at most 0.25.

For FKAW, the enrichment ratio is at most 0.25.

Turning to NDYN, the enrichment ratio was at most 0.25.

As for DGGN, the enrichment ratio was at most 0.25.

KMPS: the enrichment ratio was at most 0.25.

HQNL: the enrichment ratio is at most 0.25.

For FMPK, the enrichment ratio is at most 0.25.

With DYFV, the enrichment ratio is at most 0.25.

TFYR: the enrichment ratio is at most 0.25.

Regarding HGNR, the enrichment ratio was at most 0.25.

In the case of WKPP, the enrichment ratio is at most 0.25.

As to FIHK, the enrichment ratio was at most 0.25.

Take SMQT: the enrichment ratio was at most 0.25.

Regarding QERA, the enrichment ratio was at most 0.25.

With RTTV, the enrichment ratio was at most 0.25.

Regarding SDKD, the enrichment ratio was at most 0.25.

For LHQD, the enrichment ratio is at most 0.25.

Take AYKP: the enrichment ratio is at most 0.25.

As to ALFA, the enrichment ratio was at most 0.25.

Turning to LVPA, the enrichment ratio is at most 0.25.

For the variant WAFA, the enrichment ratio was at most 0.25.

For GQWT, the enrichment ratio is at most 0.25.

In the case of GCQF, the enrichment ratio is at most 0.25.

Regarding IRVS, the enrichment ratio was at most 0.25.

As for QERK, the enrichment ratio is at most 0.25.

Take SEIA: the enrichment ratio was 13.7.

On to SCND, for which the enrichment ratio is 6.36.

As to NNDD, the enrichment ratio was at most 0.25.

For DQGQ, the enrichment ratio is at most 0.25.

For DWTA, the enrichment ratio was at most 0.25.

As to GSIA, the enrichment ratio turned out to be 2.35.

In the case of LWFL, the enrichment ratio is at most 0.25.

For the variant RHNE, the enrichment ratio is at most 0.25.

Turning to WDFT, the enrichment ratio was at most 0.25.

With GQLV, the enrichment ratio was determined as 7.76.

Regarding WQFF, the enrichment ratio was at most 0.25.

On to WTDK, for which the enrichment ratio was at most 0.25.

For the variant GHKI, the enrichment ratio is at most 0.25.

In the case of DIIW, the enrichment ratio is at most 0.25.

Consider TIVS, for which the enrichment ratio was at most 0.25.

In the case of SVMS, the enrichment ratio came out at 8.47.

Consider ARTQ, for which the enrichment ratio is at most 0.25.

On to QREL, for which the enrichment ratio was at most 0.25.

The values above are taken from a collection of fitness landscapes (doi:10.1126/science.1257360).
